These results are taken from PubChem BioAssay AID360 (National Center for Advancing Translational Sciences (NCATS), 2006).

Out of some 48,000 compounds screened, about 550 (1.1%) were called active. Inconclusive results (about 4%) are left out. Rule as the data show it: active = potency below about 15 µM; inconclusive = mostly about 16 µM to 33 µM; inactive = weaker than that. This is one part of the list. Where only a bound is given, the exact number is not on record here.
Potency is read from the fitted curve at half-maximal effect.

Sequence of UniProt P04062 (P04062 whole entry, looked up): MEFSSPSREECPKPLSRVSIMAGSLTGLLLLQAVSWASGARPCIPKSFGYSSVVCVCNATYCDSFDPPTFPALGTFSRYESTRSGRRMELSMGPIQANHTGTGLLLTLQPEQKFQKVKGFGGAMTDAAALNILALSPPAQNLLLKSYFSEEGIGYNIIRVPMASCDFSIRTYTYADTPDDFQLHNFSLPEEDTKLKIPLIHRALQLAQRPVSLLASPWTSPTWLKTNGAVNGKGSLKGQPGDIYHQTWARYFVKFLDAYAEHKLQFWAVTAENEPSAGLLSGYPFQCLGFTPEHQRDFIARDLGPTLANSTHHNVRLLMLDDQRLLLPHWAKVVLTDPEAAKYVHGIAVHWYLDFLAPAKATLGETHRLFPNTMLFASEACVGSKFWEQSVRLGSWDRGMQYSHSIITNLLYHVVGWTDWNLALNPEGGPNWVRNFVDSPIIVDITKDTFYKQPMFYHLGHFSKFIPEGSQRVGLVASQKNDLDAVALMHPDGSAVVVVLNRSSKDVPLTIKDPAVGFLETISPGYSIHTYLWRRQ

This experiment deals with Lysosomal acid glucosylceramidase (Homo sapiens) (UniProt P04062). Put plainly: Glucocerebrosidase.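 Also: the screen sought inhibitors.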 The conditions noted are these: purified enzyme, resorufin glucoside fluorescence (screen aimed at inhibitors), 20 min. The procedure, abridged:
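Compounds titrated against 0.2 nM normal enzyme, 30 uM resorufin beta-D-glucopyranoside substrate, citrate/phosphate buffer with taurocholate and tween-20, pH 5.9. Reaction ran 20 min at room temperature; fluorescence (Ex 548/Em 600) gave AC50.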
On to `CCn1c(COc2cccc(OC)c2)nnc1SCC(=O)N1CCOCC1`, for which the Potency is inactive: > 76.9 µM. For `COC(=O)C1=C(N)Oc2cc(N(C)C)ccc2C1c1ccccc1OC` (centres undefined) the value was inactive: > 76.9 µM; for `COC(=O)c1ccc(NC(=O)CSc2nnc(CNc3ccc(OC)cc3)n2C)cc1`, inactive: > 76.9 µM; for `CS(=O)(=O)N1CCCC(C(=O)NC2CCCCCCC2)C1` (centres undefined), inactive: > 76.9 µM. As for `CC(C)NC(=O)Cn1c(SCC(=O)N2c3ccccc3CC2C)nc2ccccc21` (centres undefined), the Potency was inactive: > 76.9 µM. For the compound `COc1ccc(C2(C(=O)Nc3ccc(C(=O)O)cc3)CCOCC2)cc1`, the Potency was inactive: > 76.9 µM.

On to `Cn1c(=O)oc2cc(S(=O)(=O)NC3CCCCCCC3)ccc21`, for which the Potency was inactive: > 76.9 µM.

For `COC(=O)COc1ccc(S(=O)(=O)NCc2cccnc2)cc1`, the Potency was inactive: > 76.9 µM. `Cc1ccc(C)c2[nH]c(=O)c(CN(Cc3nnnn3C3CCCCC3)CC3CCCO3)cc12` (centres undefined): the Potency is inactive: > 76.9 µM.

Take `O=S(=O)(c1ccc(F)c(Cl)c1)N1CCCC1`: the Potency was inactive: > 76.9 µM.

In the case of `COc1ccc(CCNC(=O)C2CCN(Cc3nc(-c4ccccc4F)oc3C)CC2)cc1OC`, the Potency is inactive: > 76.9 µM.

Consider `CCOCCCn1c(SCC(=O)NC(C)(C)C)nc2ccccc2c1=O`, for which the Potency is inactive: > 76.9 µM. With `CC(C)CCN1CCNC(=O)C1CC(=O)Nc1ccc(F)cc1` (centres undefined) the figure was inactive: > 76.9 µM; with `Cc1c[n+]([O-])n(-c2ccc(C(=O)O)cc2)n1`, inactive: > 76.9 µM; with `CC1CCCCC1NC(=O)CN1C(=O)NC(C)(c2ccc(OC(F)F)cc2)C1=O` (centres undefined), inactive: > 76.9 µM. Consider `COc1cc(C2/C(=C(\O)c3ccc4c(c3)CC(C)O4)C(=O)C(=O)N2CCCn2ccnc2)ccc1O` (centres undefined), for which the Potency was inactive: > 76.9 µM. With `CCN(CCCNC(=O)CN(C)S(=O)(=O)c1ccc2c(c1)CCC(=O)N2)c1cccc(C)c1`, the Potency is inactive: > 76.9 µM. Regarding `CN(C)S(=O)(=O)c1cccc(C(=O)NCc2ccco2)c1`, the Potency is inactive: > 76.9 µM. With `N#Cc1nc(-c2cccs2)oc1N1CCOCC1` the figure was inactive: > 76.9 µM; with `CN(CC(=O)N1CCc2ccccc21)S(=O)(=O)c1cccs1`, inactive: > 76.9 µM. Consider `CCOC(=O)C1=C(N)OC2=C(C(=O)CC(C)(C)C2)C1c1ccco1` (centres undefined), for which the Potency is inactive: > 76.9 µM. For `COc1cccc(C(=O)NCC2CCN(c3ccc(S(=O)(=O)N4CCOCC4)cc3)CC2)c1` the value was inactive: > 76.9 µM; for `COCc1cc(C)nc2sc(C(=O)OC(C)C)c(N)c12`, inactive: > 76.9 µM; for `O=C(CCNS(=O)(=O)c1ccc(Br)s1)NC1CCCC1`, inactive: > 76.9 µM.
